In the supplement of paper PMC3334620:
Over roughly 33,000 sequences, “E-score (-0.5 to 0.5)” has its median near -0.053; the highest 2% begin near 0.37. The list shows a part of the results.

Each sequence was assayed against Hap1 (UniProt P0CE41) (assay: PBM E-score (8-mer binding enrichment) (E-score (-0.5 to 0.5)); higher = stronger / more preferred TF binding; most listed sequences are background and not binding sites). Details: protein concentration: 200 nM; construct: GST-DNA-binding domain.
Chain of UniProt P0CE41 (P0CE41 whole entry, the tested form may be a part): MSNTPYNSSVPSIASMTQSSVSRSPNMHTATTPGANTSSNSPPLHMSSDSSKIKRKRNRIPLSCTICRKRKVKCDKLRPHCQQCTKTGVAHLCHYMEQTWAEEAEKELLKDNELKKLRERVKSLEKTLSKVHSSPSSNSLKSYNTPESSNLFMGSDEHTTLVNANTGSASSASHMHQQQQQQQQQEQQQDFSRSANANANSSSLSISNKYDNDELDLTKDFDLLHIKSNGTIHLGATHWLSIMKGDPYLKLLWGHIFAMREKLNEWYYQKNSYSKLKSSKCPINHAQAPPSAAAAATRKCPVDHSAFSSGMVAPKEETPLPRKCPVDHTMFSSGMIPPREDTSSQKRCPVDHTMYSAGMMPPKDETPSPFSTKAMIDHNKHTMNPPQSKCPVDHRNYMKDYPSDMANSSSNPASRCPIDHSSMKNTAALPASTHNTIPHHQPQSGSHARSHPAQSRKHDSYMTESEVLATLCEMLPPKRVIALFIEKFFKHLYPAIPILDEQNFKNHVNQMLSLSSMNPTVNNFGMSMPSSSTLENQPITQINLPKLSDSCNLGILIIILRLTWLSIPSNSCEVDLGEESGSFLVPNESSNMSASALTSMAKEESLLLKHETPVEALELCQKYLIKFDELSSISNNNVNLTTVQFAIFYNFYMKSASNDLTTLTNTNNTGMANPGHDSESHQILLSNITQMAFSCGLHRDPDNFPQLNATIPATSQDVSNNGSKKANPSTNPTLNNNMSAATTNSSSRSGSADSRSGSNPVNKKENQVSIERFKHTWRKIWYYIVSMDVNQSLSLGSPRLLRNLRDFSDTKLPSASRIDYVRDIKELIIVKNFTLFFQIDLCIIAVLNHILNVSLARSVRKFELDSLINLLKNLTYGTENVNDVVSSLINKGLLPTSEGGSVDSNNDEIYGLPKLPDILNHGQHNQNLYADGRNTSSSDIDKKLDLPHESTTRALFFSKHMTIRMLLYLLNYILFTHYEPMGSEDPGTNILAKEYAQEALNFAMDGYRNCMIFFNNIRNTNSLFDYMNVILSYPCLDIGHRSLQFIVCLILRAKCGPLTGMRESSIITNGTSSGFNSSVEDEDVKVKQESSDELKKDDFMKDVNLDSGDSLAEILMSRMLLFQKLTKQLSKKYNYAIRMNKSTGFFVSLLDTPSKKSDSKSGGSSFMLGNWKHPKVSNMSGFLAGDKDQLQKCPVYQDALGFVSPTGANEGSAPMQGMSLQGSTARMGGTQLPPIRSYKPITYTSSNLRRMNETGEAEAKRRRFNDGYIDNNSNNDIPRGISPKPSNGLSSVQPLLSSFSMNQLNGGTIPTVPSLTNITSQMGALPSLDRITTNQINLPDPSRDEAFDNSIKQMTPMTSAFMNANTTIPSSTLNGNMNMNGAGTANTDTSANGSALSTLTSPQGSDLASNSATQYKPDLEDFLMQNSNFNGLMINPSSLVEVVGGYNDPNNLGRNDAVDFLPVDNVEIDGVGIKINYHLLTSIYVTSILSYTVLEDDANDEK
Procedure, shortened: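 PURExpress in vitro transcription/translation supplied GST-tagged yeast transcription factors, either full-length or DNA-binding domain. Applied at about 100-200 nM to universal all-10-mer Agilent arrays double-stranded by primer extension, the bound protein was detected with fluorescent anti-GST. E-scores, modified Wilcoxon-Mann-Whitney statistics, were given by the Universal PBM Analysis Suite to ungapped eight-base words pooled with their reverse complements after masliner normalisation.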

Sequence	PBM E-score
CCTAAGTC	-0.00871
AGTGAAAT	-0.18
CTGGCCTC	-0.00516
CCTCTAAG	-0.337
GGGCGTAA	0.217
ACTTCACC	0.136
AGCTTATA	-0.0398
CCCTGAGC	-0.0326
CATTGGAA	-0.104
ACCATCAG	-0.159
CGGGGGAC	0.191
CAAAGTAG	-0.151
AATCTCCA	-0.0624
ACTATAGG	-0.22
ATCGGGTG	0.37
CTGCCCCA	-0.186
ATACACGC	0.0491
GCTATGAA	-0.124
GAAACTAA	-0.0577
AACACAAT	-0.263
ATTGTACG	-0.164
GTCCAGTA	-0.0168
AATGTGCT	-0.0885
TCCGGTCA	0.385
ACGCTTTC	-0.176

Sequence	PBM E-score
CTGGCATC	-0.354
AGGGCCTA	0.0252
AATCCGCA	0.247
CTGGCGTA	-0.261
CTATGGTC	-0.183
AAGGTATC	0.0637
AGCTTTCA	-0.172
ACCCCGAT	0.416
AATGGCCA	-0.0907
AGCGTCGA	-0.064
CAAACAGC	-0.117
CGACGGTC	0.182
GGTTGGAC	-0.119
AAGTGCTA	-0.231
TGGCTACA	-0.267
CAAACAAA	-0.214
AAGGGAGA	-0.226
CACCTTGC	-0.136
GCTGCATA	-0.161
GATCATGA	-0.121
CTCATCAC	-0.221
AAGGGCCA	-0.224
CGCGCAAA	0.126
TCCACTAA	0.141
ACTCCTAA	-0.0276

Sequence	PBM E-score
ACTGCGTA	-0.223
ATAACATA	0.0323
CGCCCGAG	0.396
CTGGGTAA	-0.22
ATTGACCG	0.226
CCCAGATA	-0.0133
ATCTTATA	-0.0548
ACCATTCA	-0.202
ACAGCCGC	0.0417
CAACGCGG	0.214
ATAGAGTA	-0.148
TCGACACA	-0.246
GGTGCGAA	0.0879
ACAAGCCG	0.104
GAACACGA	-0.0354
GGTTCAAC	0.0371
AAGATAGT	0.0499
GGGGCGTA	0.00742
CCGGCTGA	0.314
CACTACCG	-0.00174
ACTTTGTC	-0.0965
CCAGCTCA	-0.211
CCAAGCCA	-0.215
AAGAAAAG	-0.0558
TCGTACAA	-0.21

Sequence	PBM E-score
CACTACTG	-0.229
GAAGGCCA	-0.219
AATAACAA	-0.162
ATAAAGAA	-0.101
TAGTCATA	-0.0485
GGAAGACA	-0.107
AATACCAT	-0.0062
AAAAGGTA	-0.109
ACTCCGAA	0.397
ACTATTAG	0.00767
CATGTAAA	-0.186
GATAAAAC	0.249
CCGAGTCA	0.191
TACCCGGA	0.38
CCAATGGC	-0.142
AGTCAGCC	-0.13
CACTAGGC	0.015
AGGAGTGG	-0.174
CACCAAAA	-0.135
ACTACGGA	0.238
AACACTGC	-0.0932
ATTCAAGC	0.0416
TCTGGTCA	-0.224
CAATCATA	0.0273
TAAGGGCA	0.086

Sequence	PBM E-score
ACCAGGGC	-0.213
ATCGGTAG	0.205
GAGACCGC	0.0393
CGCTTGTC	0.0215
GTGCTGTA	0.028
CATGAATC	-0.025
AATCGTAA	0.0178
CCAGCATC	-0.0468
CTACCCCA	-0.0337
CTGATCTA	-0.144
AGCAGCGG	0.178
ACCGCTCT	-0.0532
ATGGCTCC	-0.0376
CCCGGTCG	0.336
AGCTAGAA	-0.229
AGCTGAGA	-0.143
GGACGACC	0.0942
CAGCAACG	0.0492
AAACGTTC	-0.288
AAATTGCC	0.118
GAGGCTCC	0.0204
TAAAGTTA	-0.0896
CCGCGACC	0.17
ATAGTTTG	-0.13
AAGTTCCA	-0.0472

Sequence	PBM E-score
CAAGGGCC	-0.0829
AGCCACGC	-0.249
TCCCCCCA	-0.287
CAAATGAA	-0.0465
GCCTTGAA	-0.261
AATCCTAG	-0.0377
ATGCGATA	0.185
GCGGTTTA	0.0605
ATGCGAGG	-0.117
CCCGCAGA	0.146
AAAACCCC	0.187
TCTACACA	-0.223
GCGAACCA	0.0323
CCACGCAG	-0.17
ATGAAAGG	-0.0624
AATTATAA	0.0705
TACCTTGA	-0.0879
TAAGAAGA	0.135
ATACCGAT	0.288
AAAGATGC	-0.325
ACCATACT	-0.111
CGACTCCC	-0.0668
CTAATAGC	0.0235
ATGTCAAG	-0.259
AAATAGGC	0.169

Sequence	PBM E-score
AGTATGGG	-0.239
GAAGACCC	0.027
TAAATGGA	-0.177
CCCAAATA	-0.0486
GAGGCGCA	0.0393
AAGTGCGC	0.0992
GTATAAAC	0.0429
GGAGCCTA	0.184
CATAAGAA	-0.0413
CGAGCTAC	0.0494
TACGGTCA	0.181
AGGTTGCG	-0.192
ACCGTTGC	0.0924
TCGCGGCA	0.213
CCTACGGC	0.103
CACGACTG	-0.209
ATGCGATC	0.0509
CATTAATC	-0.0216
AGGACCAT	-0.149
GGAGGTCA	0.0182
GATCATAA	-0.0574
AGTCCTAC	-0.0298
AAACATAC	-0.169
TCACGGGA	0.0121
AGATACAT	-0.166

Sequence	PBM E-score
TGACAAAA	-0.195
TGCGCCCA	-0.128
AACTGTGA	-0.0694
CCCGTCAG	-0.0937
GGAAAGTA	0.108
ACCCCTCA	-0.108
GAACCTGA	-0.163
CAGCTTAA	-0.153
GGACAACA	0.00082
ACCTTCGA	-0.0571
ACACGACT	-0.267
CATCGCAA	-0.282
ATACATAG	-0.109
CATGACAG	-0.164
AACTTCAA	-0.124
ATAAAACC	0.257
CTACGCGA	-0.0275
ATAAGAGA	0.0842
GTGAAATA	-0.106
GGACACCC	0.0443
GCAAGCGC	0.134
AAATGAGT	0.0754
ACGAAAGT	-0.0811
AACCAATC	0.0867
AAGCGAGC	0.0984

Sequence	PBM E-score
TGGACCCA	-0.109
TAAGCCCA	-0.143
AACGTCCC	-0.179
CCAGCTAC	-0.273
CGATCGCC	0.12
GAAGTACA	-0.0425
CACGCTAC	-0.158
AAAGGAGC	-0.141
GGGTCGGA	0.32
ACTGGTGG	-0.272
GAACCTCA	-0.0572
GTGGACAA	0.0197
CGAGTGTC	0.00359
AAGGGTCC	0.2
CTATTACA	-0.0557
CAGCTTTA	-0.117
AGCGCCTA	0.00034
CGGGTGTC	0.15
ACTAGCCA	-0.214
AAGACTCC	-0.207
ATAGCCTC	0.0385
AAACTTGG	-0.113
TGTCAACA	-0.12
GCCGGATA	0.426
GGGTTTCA	0.148

Sequence	PBM E-score
GGTCCCGA	0.231
CGCGCTAC	0.0831
ATGTAACC	0.127
CAGACAAC	0.0282
ACACGGAG	0.295
CTCTTTCC	0.0348
CCTACTGA	-0.267
ACTCGGTG	0.151
GCACCGTA	0.0692
AATGATGT	-0.0372
GAAGCCTC	-0.157
TGAGTCCA	-0.0827
GCCTTACC	0.0429
AGTTCCGG	0.394
AACTACAA	0.0185
GGTGCGGA	0.214
ACTCAGAG	-0.103
TAGACATA	-0.16
AGACTCAT	-0.231
CGCACAAA	0.123
ACGAACCT	-0.0872
ATTCGGAA	0.311
CTAGTATA	-0.149
AGGGTACT	-0.218
ATCCAGCG	0.116

Sequence	PBM E-score
CAAGTGGC	-0.22
GCCAAGAA	-0.0284
TCTCAAAA	-0.106
CACCTGAC	-0.174
ATAAGCTG	-0.113
ATTCGGGG	0.393
CGGCTCCC	0.12
CGCGCTTC	0.0627
GGAGTAAA	0.183
ATCGCGCC	0.22
AACAGCTT	-0.106
GGTTAGGA	-0.136
AACCATAT	-0.189
CGGAGCGA	0.331
TATCTCCA	0.339
CTATACAC	-0.309
CTACTTGC	0.0605
AGAGGACG	-0.178
CCTGCCAA	-0.128
AACTAGCT	-0.211
ATGCGTTC	0.0351
ATCGGAGA	0.415
GAACGGCC	0.302
AGTGCTAG	-0.227
AATCTGTC	-0.0323

Sequence	PBM E-score
GTGAACAA	-0.131
ACGATACA	-0.216
ACTACCCC	0.0561
AAACAGGG	-0.308
AAGTCCTA	0.0348
ACCCCGAA	0.377
AAAGACGC	-0.0347
ACGCTTGC	-0.152
CCTATCAA	-0.119
CAGCGGCG	0.109
TACTTAAA	-0.0354
CGCAGGAA	0.0505
AACGCTGA	-0.121
TGTAAAAA	-0.146
CAGGATGA	-0.232
CGCCGCAA	0.275
CGATTGCC	0.102
AGTGCACG	-0.144
CAATATGC	-0.0574
AGGTTTTA	0.0786
ATCGCGTC	0.109
ACTTGACT	-0.132
CGCTCCTA	-0.107
AGCAAAAG	-0.211
CCTAGAAA	-0.00065

Sequence	PBM E-score
AAGTGTAT	-0.251
CTCGATAC	-0.14
TCCCTGAA	-0.23
CTAGTCTA	-0.377
AACTCTAT	0.0885
AAATTCGT	0.0977
CCCGGTAA	0.387
ACTACTAA	-0.0511
AATCTTTA	-0.0648
ACCAGTTG	-0.0814
AACCAGGA	-0.0608
TAGCAAAA	0.121
GTGACCAC	-0.0879
CTACCATA	-0.191
CCTAGACC	-0.237
AAAAGCTC	0.104
CGTGTAAA	-0.0672
CTATAGAG	-0.188
CCTTGGTC	-0.176
CGCCACGC	-0.0605
CACCAAAC	-0.252
ACACGCAT	-0.0767
ATTACTTG	-0.182
ATGCGCTG	-0.0868
CCCGTGGA	0.154

Sequence	PBM E-score
GAGGAACA	-0.0107
CCCCCCAA	-0.161
CCGCCGTA	0.329
CTGTGACC	-0.0925
GCGCCTAC	0.0211
AGAAGGCG	-0.231
CTGGATCC	0.234
GGGTGGGA	0.0589
AATACGGT	-0.015
GAACTCTC	0.0148
GATCCTTA	-0.272
GCGCCGAA	0.359
CATGATCC	0.0708
ACCCAGCC	-0.249
GGCGGTCA	0.183
TAGTTAAA	0.00327
CCTACCTA	-0.201
AAAGCCGA	0.426
CAGAGCCC	-0.172
